Measurements: article PMC4336329 (PLoS ONE, 2015)
Among all 310,000 compounds or so, about 14,000 (4.5%) showed an effect of 50% or more. The effect is printed as a negative number. The list shows a part of the results.

Target: human ether-à-go-go-related gene (hERG) potassium channel (human, UniProt Q12809)
Assay: primary screen, population patch clamp on CHO cells stably expressing hERG
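Note: peak tail current of the secondary pulse compared with the same well before compound.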

human ether-à-go-go-related gene (hERG) potassium channel, sequence (Q12809 whole entry, looked up): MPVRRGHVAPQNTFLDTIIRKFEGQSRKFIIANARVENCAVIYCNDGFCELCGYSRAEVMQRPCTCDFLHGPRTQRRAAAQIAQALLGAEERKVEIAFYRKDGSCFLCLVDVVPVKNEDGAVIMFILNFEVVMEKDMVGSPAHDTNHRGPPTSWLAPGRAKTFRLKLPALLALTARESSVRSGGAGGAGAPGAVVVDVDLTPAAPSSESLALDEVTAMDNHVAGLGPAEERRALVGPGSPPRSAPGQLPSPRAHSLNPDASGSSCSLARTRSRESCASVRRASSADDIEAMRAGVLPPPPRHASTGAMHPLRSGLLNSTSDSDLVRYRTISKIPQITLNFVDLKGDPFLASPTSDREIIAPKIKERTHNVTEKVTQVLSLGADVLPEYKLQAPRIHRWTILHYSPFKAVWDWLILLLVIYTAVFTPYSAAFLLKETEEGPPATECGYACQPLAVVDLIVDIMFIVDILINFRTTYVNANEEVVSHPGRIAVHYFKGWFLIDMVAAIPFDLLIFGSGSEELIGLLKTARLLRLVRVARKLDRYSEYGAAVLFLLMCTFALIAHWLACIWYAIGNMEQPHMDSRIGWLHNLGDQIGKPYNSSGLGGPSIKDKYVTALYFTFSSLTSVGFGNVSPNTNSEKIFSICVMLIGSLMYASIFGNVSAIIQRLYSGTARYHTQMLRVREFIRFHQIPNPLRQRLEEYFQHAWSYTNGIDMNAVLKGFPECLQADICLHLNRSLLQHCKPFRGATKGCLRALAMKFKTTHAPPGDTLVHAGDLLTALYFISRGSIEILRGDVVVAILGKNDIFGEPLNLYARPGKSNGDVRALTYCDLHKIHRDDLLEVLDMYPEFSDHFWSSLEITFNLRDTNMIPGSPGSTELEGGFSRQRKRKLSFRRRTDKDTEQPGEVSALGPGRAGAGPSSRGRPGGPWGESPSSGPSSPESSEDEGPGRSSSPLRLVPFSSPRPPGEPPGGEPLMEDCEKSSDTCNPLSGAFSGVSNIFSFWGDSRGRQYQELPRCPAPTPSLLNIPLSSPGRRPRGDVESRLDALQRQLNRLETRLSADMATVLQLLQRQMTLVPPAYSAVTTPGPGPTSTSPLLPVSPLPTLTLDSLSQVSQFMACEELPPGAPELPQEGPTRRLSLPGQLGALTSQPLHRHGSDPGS

Row | Structure (SMILES) | hERG current change (%, negative = inhibition) at 10uM [%]
1 | CN1CCC(OC(=O)c2ccccc2)CC1.Cl | 7.92
2 | COc1cc(N2C(=O)c3ccccc3C2=O)c(Cl)cc1C(=O)OCC(=O)NCc1ccco1 | -56.1
3 | CC(C)Oc1cccc(C(=O)C2CCCN(S(=O)(=O)C(C)C)C2)c1 (centres unmarked) | -21.7
4 | CCN1C(=O)[C@@H]2[C@@H](c3ccc(-c4ccc(F)cc4)cc3)N3CCC[C@@]3(C(=O)OC)[C@@H]2C1=O.O=C(O)C(F)(F)F | -20.7
5 | COC(=O)C1=C(N)Oc2cc(C)n(CCCn3ccnc3)c(=O)c2C1c1ccc(Cl)cc1 (centres unmarked) | -59.8
6 | O=C(NC(=S)Nc1ccccc1O)c1ccccc1Cl | 13.3
7 | O=C(CCc1nc(-c2ccccc2Cl)no1)Nc1cccnc1 | -2.65
8 | NC(=O)c1nnn(-c2cccc(C(F)(F)F)c2)c1-c1ccccc1 | 12.5
9 | COc1cc2c(cc1OC)C1(CCCC1)CNC2C.Cl (centres unmarked) | -3.04
10 | COCCNC(=O)c1cc2ncc(Br)cn2n1 | 5.41
11 | CCCCn1c(SCC(=O)N2c3ccccc3CCc3ccccc32)nc2c1c(=O)n(C)c(=O)n2C | -1.44
12 | CCOC(=O)c1cc(CC)sc1NC(=O)CN1CCN(C(=O)C2CCCO2)CC1 (centres unmarked) | -65.9
13 | O=C(Cn1ccc2ccccc2c1=O)NCCC(=O)N1CCN(c2cccc(Cl)c2)CC1 | -8.46
14 | COc1ccc(CC2(CO)CCN(Cc3ccc(NC(C)=O)cc3)CC2)cc1 | -57.4
15 | COc1ccc(C(=O)N2CCCCC2)cc1S(=O)(=O)Nc1ccccc1 | -0.348
16 | Cc1cc(CNC(=O)C2(C(F)(F)F)C/C(=C\CCO)CCCO2)nn1C (centres unmarked) | 4.95
17 | CCCNc1nc(C)cc(-c2cc(-c3ccccc3)on2)n1 | 19.9
18 | Cc1nc(C)c(Oc2ccc(Cl)cc2Cl)c(=O)[nH]1 | 13.4
19 | O=C(C1CCCCC1)N1CCN(S(=O)(=O)c2ccc(Br)cc2)CC1 | -4.21
20 | Cc1ccc(C(=O)NNC(=O)CCC(=O)NCc2ccccc2)cc1Br | 7.76
21 | CC(=O)N(CN1C(=O)c2ccccc2C1=O)c1ccc2c(c1)oc1ccccc12 | -2.01
22 | CCCCn1c(=O)c(C(=O)NCc2ccccc2OC)c(O)c2ccccc21 | 5.98

Row | Structure (SMILES) | hERG current change (%, negative = inhibition) at 10uM [%]
23 | O=P(OC1CCCCC1)(OC1CCCCC1)C(Nc1ccccc1)c1cccnc1 (centres unmarked) | -33.6
24 | CSCC[C@H](NC(=O)Nc1ccccc1C)C(=O)O | 0.33
25 | COc1cc(SC#N)ccc1N=Cc1c(C)[nH]n(-c2ccc(Cl)cc2)c1=O | -4.93
26 | CCOc1ccc(Nc2cc(C)c3ccccc3n2)cc1 | 0.00468
27 | CCOc1ccc(C2=Nc3ccc(Br)cc3C(c3ccc(N4CCOCC4)cc3)=NN2)cc1 | 14.3
28 | O=C(CCCOc1ccccc1)NCc1ccco1 | -8.64
29 | CCCn1nnnc1NCc1ccc(CC)cc1 | -6.44
30 | CCOC(=O)C1(CCOC)CCN(C2C3CC4CC(C3)CC2C4)CC1 (centres unmarked) | 5.57
31 | Cc1oc2cc3oc(=O)c(CCC(=O)N[C@H](C(=O)O)C(C)C)c(C)c3cc2c1C | 7.35
32 | COc1ccc(C2CC(c3ccccc3)=NN2C(=O)COC(=O)c2cccc(S(=O)(=O)N3CCOCC3)c2)cc1 (centres unmarked) | 13.5
33 | Cc1nc(SCC(=O)Nc2c(C)n(C)n(-c3ccccc3)c2=O)c(C#N)c(C)c1C | -46.8
34 | COc1cc2c(cc1OC)C(C(=O)NC1CC1)C1c3ccccc3CCN1C2=O (centres unmarked) | -4.76
35 | O=C(CCc1nnc(CCCCc2ccccc2)o1)NCCn1cccn1 | 4.22
36 | CC(=O)c1nn(-c2cccc(Br)c2)cc1C(=O)c1ccc2ccccc2c1 | 13.7
37 | N#CCC(CNc1ncc(C(F)(F)F)cc1Cl)OC(=O)c1cccc(C(F)(F)F)c1 (centres unmarked) | -5.32
38 | Cc1ccccc1CN1CCN(Cc2ccccc2C(F)(F)F)CC1.O=C(O)C(=O)O | 0.869
39 | CCc1[nH]c(=O)c(C#N)c2c1COC(C)(C)C2 | -6.05
40 | OCCNc1nc(-c2ccccc2)c2ccccc2n1 | -12.7
41 | Cc1ccc(CNC2=NCCCCC2)n1C | 5.25
42 | Cc1nc(N2CCN(c3ccccn3)CC2)c2c(C)c(C(=O)Nc3ccc(F)cc3)sc2n1 | -76.4
43 | COC(=O)Nc1nc2c(C)cccc2s1 | -5.84
44 | NC(=O)c1cc(S(=O)(=O)Nc2cccc(Cl)c2)cs1 | -61.2
